Experimental findings from publication PMC12136788 are described below.

The list shows a part of the results.

T1: UNK ZnF1-3 (human, UniProt Q9C0B0 31-174)
T1 sequence: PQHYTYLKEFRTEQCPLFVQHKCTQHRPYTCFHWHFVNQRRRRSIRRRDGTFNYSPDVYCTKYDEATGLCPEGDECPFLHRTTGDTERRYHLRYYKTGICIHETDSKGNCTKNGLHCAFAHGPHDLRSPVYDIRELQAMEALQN

B1: chr14:52433459:52433460:+_ENSG00000186469_ENST00000556752|hu_hu|FALSE|FALSE (ssRNA)
RNA: GGGAGUUCUACAGUCCGACGAUCAAUGGUUCUCCUCGCUCUCUUCAAAUGCCGUGGACUAGAAAGGUGCCCACUUCACUAAAAACUCUACAUCAAUGUCCCAGGAGCCCGGAGGCUCUUCAGGCCCCUCUCAAAGACUUAAAGCAACAGAGGAUUGAGCAUCA
B2: chr1:109605286:109605287:-_ENSG00000197780_ENST00000461096|hu_mus|hu_hu_hu_mus_True|8_78 (ssRNA)
RNA: GGGAGUUCUACAGUCCGACGAUCAAGUUUCAGAGUAACAUUCAGUAACCUCUUUAACAAUUGUAAUCCUUAUUAUAAGCUAAGCAGAAUAAUAAUUUAAUACCGUAAGUGAACUACACACAAAGCCGUGUAUUCAGAAAUGGUCAACAGAGGAUUGAGCAUCA
B3: chr7:56126341:56126342:+_ENSG00000146731_ENST00000540286|hu_mus|hu_hu_hu_mus_True|1_88 (ssRNA)
RNA: GGGAGUUCUACAGUCCGACGAUCCAUGUUUCUCCUCUUGGCUCUGCGCAGAGCAACGAUCCCUUCUUUCGCAAGGGCAUCUAAGGAAAAGGGGUCAAUCCCCUUUUGAUUAAUAACGACAAAUCCUUUAUCUGAGUCGCCACACAACAGAGGAUUGAGCAUCA
B4: 55052064_55059170_449_3pUTR_ENSG00000022277_ENST00000023939|human|control|control (ssRNA)
RNA: GGGAGUUCUACAGUCCGACGAUCGAACCUGUGUCGGCCGUUCAUCUCCAGGCCCACAACGGGGCAGAUGAAACGCGCCCGCUGGAGGUCAUCGUGCUUGUCACCUUUAGUGUUUCCUUUAUCCCCUUCCCAGGCAGGAUUAUCCAACAGAGGAUUGAGCAUCA
B5: chr10:1038518:1038519:+_ENSG00000107937_ENST00000545048|hu_hu|motif|central (ssRNA)
RNA: GGGAGUUCUACAGUCCGACGAUCAAGUCUAUCAUGGUAAUUCUGUUGAGUAAAUUUGACUUUUCUCAUGUAAAAAUGUCGGAUGCGAUGUAUUUGGUAAUGUUUAUGAAUAACGGUUGGAGUCUUUCGUUGAGUCUUCGACAACAACAGAGGAUUGAGCAUCA
B6: 122513083_122513203_418_5pUTR_ENSMUSG00000034602_ENSMUST00000073792|mouse|control|control (ssRNA)
RNA: GGGAGUUCUACAGUCCGACGAUCCGGCCCGCAGCCAGCCGGCGGCUCCUCAGUCUUCCUUAGCCGGGGCCCAGGGCUCGGCGGGCGGGCGGGCGGGCGGGCGCACGGCCGGAGCCGGGCUGCGUCUCCCGAGGCGUGCCCGAGCAACAGAGGAUUGAGCAUCA
B7: chr18:52893488:52893489:-_ENSG00000196628_ENST00000354452|hu_mus|motif|central (ssRNA)
RNA: GGGAGUUCUACAGUCCGACGAUCUAUUUAGACCAUUUCCGCGGAGUUAUGGCAUUUACUCAGUGCUGAUAGGUGGAAAAACGGCUUCAACAGGGAUUUUUUUUUUCCUUAAUACAUGCCAAGAUUGUGUGGCUGUCAAAACAGCAACAGAGGAUUGAGCAUCA
B8: 112528614_112530920_387_CDS_ENSG00000111300_ENST00000261745|human|control|control (ssRNA)
RNA: GGGAGUUCUACAGUCCGACGAUCAGUAAAGGCUUCCUCUUGCUUUCCAGUUCUCUGUAAACCAAUUGCCUUUAAAACCUUAGCACAAUGAAGAUCCUUAUGUUUCUUCAACAGUUUAUCUGCUUGCUGAAUUGCCAUUUUAUUCAACAGAGGAUUGAGCAUCA
B9: 98581856_98581976_8367_CDS_ENSG00000196367_ENST00000456197|human|control|control (ssRNA)
RNA: GGGAGUUCUACAGUCCGACGAUCUGCACUCGUUUUUGCCCAUGACGCCUGCCAGCUGGAGGUAGCAUUUAACUUGCUGUCGAAUCUUCUGGAAGCAAUCCACGAUAGGAACAGUUGGAAUAGUAUGAAUCCGACUUAAUAUAUCAACAGAGGAUUGAGCAUCA
B10: chr12:60073987:60073988:-_ENSMUSG00000020986_ENSMUST00000021375|perfect_dup|FALSE|FALSE (ssRNA)
RNA: GGGAGUUCUACAGUCCGACGAUCCUGGGUCAGAUCUUGACGCAUAAAAUGGUGACGAUAAUAUGAACUCUCAUCAGGACUAUUGUUAAAAACUUGCAGGAAAGAAGAUCUUCUUAAAUGAAACAUAAACUGUGGAUAAAGGGACAACAGAGGAUUGAGCAUCA
B11: chr2:217001844:217001845:+_ENSG00000079246_ENST00000392132|hu_hu|hu_hu_hu_mus_False|1_28 (ssRNA)
RNA: GGGAGUUCUACAGUCCGACGAUCACCAACUUGAGGAUUAGAUCUUUUGUCAUAAGCAUAUCGGACGAUGGCGACCAUGUUUAACUCAUCCAAAGCAUGAACGAGAGAGGAAAGUGCAACAGCUGCCGCCUCAUCAUCUCUUGCCAACAGAGGAUUGAGCAUCA
B12: chr1:163112212:163112213:-_ENSG00000143248_ENST00000313961|hu_hu|hu_hu_hu_mus_False|68_98 (ssRNA)
RNA: GGGAGUUCUACAGUCCGACGAUCUUUUAUUAUCAGUAAGCAUGAGUUACAUACUAGGCAAAGUAUUGAAUACAAAAAUCAGGAAACAAACACUAUUGGUCCAGAAUUUAAAACUUUAUGAGCGAAGUGCUGGCACAGGACUUACAACAGAGGAUUGAGCAUCA
B13: chr7:135612270:135612271:-_ENSG00000105887_ENST00000393085|hu_mus|hu_hu_hu_mus_False|1_18 (ssRNA)
RNA: GGGAGUUCUACAGUCCGACGAUCGUUUUUUUCUGAGAUGUUAAAUAGUACUUCAGUGGAAAACAAAACUUAACCUUUUAUUAAUGCGUGUUGUACCAAAAGCAGACAUUUUAGCUUGCUUCCUUUAAAAAUAUUAAGAACAUUCAACAGAGGAUUGAGCAUCA
B14: chr15:98781125:98781126:-_ENSMUSG00000072235_ENSMUST00000097014|mus_hu|motif|central (ssRNA)
RNA: GGGAGUUCUACAGUCCGACGAUCAACAUUCAGGGCUCCAUCAAAUCUCAGGGAAGCAGUGAUGGAGGACACAAUUUGACCGGUUAACCUAUUCAGGUUAGUAUAGGUUGGACGCUCAAUAUCGAGGUUUCUACGACAGAUGUCCAACAGAGGAUUGAGCAUCA

This assay has as its target T1, UNK ZnF1-3. Nature of the assay: nsRBNS (natural sequence RNA bind-n-seq); RBNS binding buffer (assumed for nsRBNS): 25 mM Tris pH 7.5, 150 mM KCl, 3 mM MgCl2, 0.01% Triton X-100, 500 ug/ml BSA, 20 U/ml SUPERase-In, 4 C; UNK is unkempt and MSI1 is Musashi-1; names of the RNAs are library labels; protein concentration not given here; high values mean tight binding.
Take B1: the binding signal worked out at 1.14 enrichment R. As for B2, the binding signal was determined as 0.639 enrichment R. B3 displayed a binding signal of 1.07 enrichment R. Next, B4: 1.01 enrichment R; B5: 0.973 enrichment R. Next, B6: 0 enrichment R; B7: 1.14 enrichment R; B8: 0.634 enrichment R. As for B9, the figure is 0.944 enrichment R. B10 returned a binding signal of 1.41 enrichment R.

On to B11, for which the binding signal was determined as 1.54 enrichment R. Consider B12, for which the binding signal was determined as 1.56 enrichment R. In turn, B13 came in with a binding signal of 0.63 enrichment R.

B14 gave a binding signal of 0.693 enrichment R.
